Measurements reported in publication PMC12095047, “Transport of phenoxyacetic acid herbicides by PIN-FORMED auxin transporters” (Nature Plants, 2025).
“And” between values parts separate entries of the source, which are not always exact repeats. Identical values can stand only once. Like-named read-outs stand apart in the source and are kept apart here. This continues a long series; more values of the same kind are listed elsewhere.

Tests used:
Format in all cases: biochemical
[1] = molecular target: T1, A. thaliana PIN8 (Arabidopsis thaliana, UniProt Q9LFP6); experiment: SSM electrophysiology, peak current response on PIN8 proteoliposomes; details: 2 mM 4-CPA, individual sensors
T1 construct: made in house
T1 sequence (Q9LFP6 1-367): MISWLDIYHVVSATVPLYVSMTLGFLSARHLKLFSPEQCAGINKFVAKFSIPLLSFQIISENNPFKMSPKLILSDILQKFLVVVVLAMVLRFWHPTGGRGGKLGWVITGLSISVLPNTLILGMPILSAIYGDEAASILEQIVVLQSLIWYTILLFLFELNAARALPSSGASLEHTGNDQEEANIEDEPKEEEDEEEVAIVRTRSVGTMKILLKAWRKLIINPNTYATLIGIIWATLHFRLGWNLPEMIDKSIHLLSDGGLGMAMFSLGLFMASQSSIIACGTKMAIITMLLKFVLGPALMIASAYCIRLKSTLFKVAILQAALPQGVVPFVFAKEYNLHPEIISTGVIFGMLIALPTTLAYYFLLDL
Description: (§1) SSM, using a SURFE2R N1 from Nanion Technologies, was conducted as described. In brief, soy polar lipid mix (38% phosphatidyl choline, 30% phosphatidyl ethanolamine, 18% phosphatidyl inositol, 7% phosphatidic acid and 7% other soy lipids) and 1-palmitoyl-2-oleoyl-sn-glycero-3-phosphocholin were purchased from Avanti. Liposomes were prepared in Ringer solution without Ca^2+ (115 mM NaCl, 2.5 mM KCl, 1 mM NaHCO3, 10 mM HEPES pH7.4, 1 mM MgCl2) and homogenized using a Lipsofast (Avestin) with a […]. Triton X-100 was added to the liposomes to a final concentration of 1% (v/v). Protein was added to liposomes to a calculated lipid-to-protein ratio (LPR) of 10 unless stated otherwise. The detergent was removed using 400 mg ml^−1 Bio Beads (BioRad) overnight at 4 °C in a rotary shaker. Proteoliposomes were frozen in liquid nitrogen and kept at −80 °C until use. Proteoliposomes were diluted 1:5 in Ringer solution without Ca^2+, sonicated five times and then applied to the sensors by centrifugation (30 min, 3,000 g, 4 °C). Non-activating buffer was Ringer solution without Ca^2+ as described unless specified otherwise, and activating buffer contained the substrate of interest. In most instances we used a single-solution exchange experiment. In this case proteoliposomes, immobilized on the supported membrane, are kept in non-activating buffer as specified. At the beginning of the experiment the non-activating buffer is replaced with fresh identical non-activating buffer, and after 1 s, activating buffer (same buffer containing substrate) is added. After another second, the buffer is replaced with non-activating buffer again. Current response is recorded throughout the entire 3 s. For competition or inhibition, the respective compound was present in non-activating and activating solutions. Each experiment was performed on at least two individual sensors. On each sensor each measurement consists of three technical replicates where the mean is calculated. KD values were determined as described previously. Briefly, the binding current induced by 100 µM NPA was recorded in the presence of different concentrations of the substrate under investigation ranging between 0 µM and 1,000 µM present in the activating solution and the non-activating solution (Extended Data Fig. 5b). […] The maximum peak current was then plotted as a function of the concentration of the substrate under investigation and plotted against the degree of inhibition and fitted with a one-site binding model using GraphPad Prism V10.4.1 The half maximal concentration corresponds to the KD of the substrate under investigation.

[2] = molecular target: T2, PIN8 Y150F (Arabidopsis thaliana, UniProt Q9LFP6, Y150F); details: individual sensors
T2 construct: made in house
T2 sequence (Q9LFP6 whole entry Y150F): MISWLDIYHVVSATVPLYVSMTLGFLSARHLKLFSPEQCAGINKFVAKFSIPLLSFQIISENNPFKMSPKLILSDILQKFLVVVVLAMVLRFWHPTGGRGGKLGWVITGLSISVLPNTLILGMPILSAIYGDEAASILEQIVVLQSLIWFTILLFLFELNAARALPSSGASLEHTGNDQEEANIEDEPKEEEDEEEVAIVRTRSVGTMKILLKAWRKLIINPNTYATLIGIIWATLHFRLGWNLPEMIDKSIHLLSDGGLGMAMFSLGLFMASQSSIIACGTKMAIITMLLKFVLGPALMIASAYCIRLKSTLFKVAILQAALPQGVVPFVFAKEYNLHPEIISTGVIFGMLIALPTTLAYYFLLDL
Description: as §1
(§2) The protocol for expression and purification of AtPIN8 protein (Uniprot: Q9LFP6) in lauryl maltose neopentyl glycol was described previously. All point mutants were generated using Q5 Site-Directed mutagenesis kit (New England Biolabs). The C-flat Holey Carbon grids (CF-1.2/1.3, Cu-300 mesh) were glow-discharged for 45 s at 15 mA in a GloQube Plus (Quorum). […] After 1 h of incubation on ice, the sample was centrifuged at 16,000 g for 15 min before blotting to remove precipitation. A drop of 4 µl of each sample was applied to the glow-discharged grids, blotted with a Vitrobot Mark IV (ThermoFisher Scientific) using the following settings (temperature 4 °C, 100% humidity, blot time of 4 s, blot force −1) and vitrified in liquid ethane.

[3] = molecular target: T3, PIN8 S55A/S146A (Arabidopsis thaliana, UniProt Q9LFP6, S146A/S55A); details: individual sensors
T3 construct: made in house
T3 sequence (Q9LFP6 whole entry S55A/S146A): as the sequence (Q9LFP6 whole entry Y150F) above, with S55A, S146A, F150Y counted along it
Description: as §1, §2

[4] = molecular target: T4, PIN8 I51Y (Arabidopsis thaliana, UniProt Q9LFP6, I51Y); details: individual sensors
T4 construct: made in house
T4 sequence (Q9LFP6 whole entry I51Y): as the sequence (Q9LFP6 whole entry Y150F) above, with I51Y, F150Y counted along it
Description: as §1, §2

[5] = molecular target: T5, PIN8 N223A (Arabidopsis thaliana, UniProt Q9LFP6, N223A); details: individual sensors
T5 construct: made in house
T5 sequence (Q9LFP6 whole entry N223A): as the sequence (Q9LFP6 whole entry Y150F) above, with F150Y, N223A counted along it
Description: as §1, §2

[6] = molecular target: T6, PIN8 S266A (Arabidopsis thaliana, UniProt Q9LFP6, S266A); details: individual sensors
T6 construct: made in house
T6 sequence (Q9LFP6 whole entry S266A): as the sequence (Q9LFP6 whole entry Y150F) above, with F150Y, S266A counted along it
Description: as §1, §2

O=C(O)COc1ccc(Cl)cc1 [4-CPA, 4-chlorophenoxyacetic acid]
Peak current ([1]; absence of NPA): 9.1334 nA
Peak current ([1]; presence of 20 µM NPA): 3.899 nA and 2.079 nA
Peak current ([2]; 5 µM substrate): 0.1124 nA and 0.2742 nA and 0.2438 nA and 0.4634 nA
Peak current ([2]; 20 µM substrate): 0.214 nA and 0.2611 nA and 0.2146 nA and 4.15e-5 nA
Peak current ([2]; 50 µM substrate): 0.6792 nA and 0.8269 nA and 0.6826 nA and 1.119 nA
Peak current ([2]; 100 µM substrate): 0.933 nA and 0.9667 nA and 0.781 nA and 0.8667 nA
Peak current ([2]; 500 µM substrate): 2.503 nA and 2.048 nA and 1.77 nA and 1.668 nA
Peak current ([2]; 1000 µM substrate): 3.482 nA and 2.773 nA and 2.407 nA and 2.3466 nA
Peak current ([2]; 2000 µM substrate): 4.702 nA and 3.788 nA and 3.486 nA and 3.842 nA
Peak current ([3]; 5 µM substrate): 0.7856 nA and 0.8117 nA and 0.7294 nA
Peak current ([3]; 20 µM substrate): 2.368 nA and 2.72 nA and 2.487 nA
Peak current ([3]; 50 µM substrate): 3.925 nA and 4.585 nA and 4.086 nA
Peak current ([3]; 100 µM substrate): 5.1433 nA and 6.022 nA and 5.257 nA
Peak current ([3]; 500 µM substrate): 7.88 nA and 9.495 nA and 8.2346 nA
Peak current ([3]; 1000 µM substrate): 8.927 nA and 10.5916 nA and 9.419 nA
Peak current ([3]; 2000 µM substrate): 9.8278 nA and 11.4999 nA and 10.4608 nA
Peak current ([4]; 5 µM substrate): 0.104 nA and 0.148 nA and 0.123 nA
Peak current ([4]; 20 µM substrate): 0.091 nA and 0.096 nA and 0.095 nA
Peak current ([4]; 50 µM substrate): 0.355 nA and 0.405 nA and 0.364 nA
Peak current ([4]; 100 µM substrate): 0.372 nA and 0.42 nA and 0.352 nA
Peak current ([4]; 500 µM substrate): 1.098 nA and 1.106 nA and 0.904 nA
Peak current ([4]; 1000 µM substrate): 1.456 nA and 1.385 nA and 1.078 nA
Peak current ([4]; 2000 µM substrate): 2.355 nA and 2.296 nA and 1.757 nA
Peak current ([5]; 5 µM substrate): 0.008528 nA and 0.01312 nA and 0.006345 nA
Peak current ([5]; 20 µM substrate): 0.007003 nA and 0.02508 nA and 0.01069 nA
Peak current ([5]; 50 µM substrate): 0.006032 nA and 0.01061 nA and 0.01155 nA
Peak current ([5]; 100 µM substrate): 0.005994 nA and 0.02204 nA and 0.01745 nA
Peak current ([5]; 500 µM substrate): 0.6582 nA and 0.7134 nA and 0.5332 nA
Peak current ([5]; 1000 µM substrate): 1.248 nA and 1.323 nA and 1.1 nA
Peak current ([5]; 2000 µM substrate): 2.167 nA and 2.239 nA and 2.0202 nA
Peak current ([6]; 5 µM substrate): 0.02065 nA and 0.01524 nA and 0.01916 nA
Peak current ([6]; 20 µM substrate): 0.02584 nA and 0.00943 nA and 0.01896 nA
Peak current ([6]; 50 µM substrate): 0.03178 nA and 0.1167 nA and 0.03945 nA
Peak current ([6]; 100 µM substrate): 0.1687 nA and 0.4309 nA and 0.2888 nA
Peak current ([6]; 500 µM substrate): 1.3803 nA and 2.021 nA and 0.7864 nA
Peak current ([6]; 1000 µM substrate): 2.1491 nA and 3.295 nA and 1.502 nA
Peak current ([6]; 2000 µM substrate): 3.257 nA and 4.824 nA and 2.236 nA

O=C(O)Cc1c[nH]c2ccccc12 [IAA, indole-3-acetic acid]
Peak current ([2]; 5 µM substrate): 0.04349 nA and 0.08816 nA
Peak current ([2]; 20 µM substrate): 0.3008 nA and 0.1166 nA
Peak current ([2]; 50 µM substrate): 0.7156 nA and 0.3431 nA
Peak current ([2]; 100 µM substrate): 1.333 nA and 0.7031 nA
Peak current ([2]; 500 µM substrate): 3.882 nA and 2.2923 nA
Peak current ([2]; 1000 µM substrate): 5.306 nA and 3.231 nA
Peak current ([2]; 2000 µM substrate): 6.136 nA and 3.331 nA
Peak current ([3]; 5 µM substrate): 0.465 nA and 0.5002 nA and 0.5662 nA
Peak current ([3]; 20 µM substrate): 0.6855 nA and 0.6271 nA and 1.152 nA
Peak current ([3]; 50 µM substrate): 1.161 nA and 0.8783 nA and 1.9946 nA
Peak current ([3]; 100 µM substrate): 1.362 nA and 0.8101 nA and 2.6104 nA
Peak current ([3]; 500 µM substrate): 3.393 nA and 2.269 nA and 5.611 nA
Peak current ([3]; 1000 µM substrate): 5.076 nA and 3.798 nA and 7.432 nA
Peak current ([3]; 2000 µM substrate): 5.468 nA and 4.104 nA and 7.879 nA
Peak current ([4]; 5 µM substrate): 0.3159 nA and 0.4078 nA and 0.2616 nA
Peak current ([4]; 20 µM substrate): 0.3089 nA and 0.3835 nA and 0.2875 nA
Peak current ([4]; 50 µM substrate): 0.3227 nA and 0.3793 nA and 0.3407 nA
Peak current ([4]; 100 µM substrate): 0.01816 nA and 0.04709 nA and 0.3071 nA
Peak current ([4]; 500 µM substrate): 1.099 nA and 1.182 nA and 0.8863 nA
Peak current ([4]; 1000 µM substrate): 1.929 nA and 1.7753 nA and 1.506 nA
Peak current ([4]; 2000 µM substrate): 1.453 nA and 1.778 nA and 1.856 nA
Peak current ([5]; 5 µM substrate): 0.02147 nA and 0.007803 nA and 0.01536 nA
Peak current ([5]; 20 µM substrate): 0.03442 nA and 0.01942 nA and 0.00897 nA
Peak current ([5]; 50 µM substrate): 0.02378 nA and 0.07636 nA and 0.01338 nA
Peak current ([5]; 100 µM substrate): 0.2872 nA and 0.6837 nA and 0.6146 nA
Peak current ([5]; 500 µM substrate): 0.8542 nA and 1.436 nA and 1.155 nA
Peak current ([5]; 1000 µM substrate): 0.9951 nA and 1.777 nA and 1.459 nA
Peak current ([5]; 2000 µM substrate): 0.9574 nA and 2.034 nA and 2.099 nA
Peak current ([6]; 100 µM substrate): 0.2889 nA and 0.9012 nA and 0.2145 nA
Peak current ([6]; 500 µM substrate): 1.327 nA and 2.405 nA and 1.351 nA
Peak current ([6]; 1000 µM substrate): 2.605 nA and 3.622 nA and 2.452 nA
Peak current ([6]; 2000 µM substrate): 2.606 nA and 3.8722 nA and 2.498 nA
